Data: the RNAGym collection of RNA variant scans (doi:10.1093/nar/gkz1192)
Read counts are not given, so values of variants with three or more changes are uncertain.

B1: CPEB3 Ribozyme (parent)
chain: UAACAGGGGGCCACAGCAGAAGCGUUCACGUCGCAGCCCCUGUCAGAUUCUGGUGAAUCUGCGAAUUCUGCUGUAUAUCUC

Variants of: B1
Test: self-cleavage, relative activity (ratio to wild type); higher = more cleavage; in vitro, sequencing
Summary of the method: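 Relative activity compares each variant's cleaved/total read fraction with that of the unmutated ribozyme. To get these fractions, barcoded CPEB3 ribozyme libraries from rounds of error-prone PCR were transcribed with T7 RNA polymerase for 5 hours at 37°C and then given 15 min of DNase I treatment before EDTA was added. The RNAs were reverse transcribed with template switching and sequenced on Illumina, and DNA sequencing linked barcodes to variants. A minimum of 5 reads applied, and three batches were averaged.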

Variant	self-cleavage
U26C U31C C50A U58C	0.09
U26C U31C G73A	0.66
U26C U31C U41C	0.54
U26C U31C U41C A77U U78C	0.27
U26C U31C U43A A45G U54A U69A U78C	0.04
U26C U31C U48C U69G	0.09
U26C U31C U49C U51A U67C	0.06
U26C U31C U54C	0.4
U26C U31C U54C A57G	0.12
U26C U31C U69A	0.3
U26C U31C U78C	0.43
U26C U31G U41A U76C	0.09
U26C U31G U49A U72C U78C	0.26
U26C U31G U66C U80G	0.1
U26C U41A A45C U48C	0.2
U26C U41A A57U	0.14
U26C U41A G61U A65U U72C U76C	0.05
U26C U41A U66C	0.22
U26C U41C A45C	0.4
U26C U41C A47U U54C A75G U80C	0.1
U26C U41C A56G	0.47
U26C U41C A57U	0.22
U26C U41C G55U G61A	0.2
U26C U41C U48C G63U U69C	0.14

Variant	self-cleavage
U26C U41C U49C	0.15
U26C U41C U49C U74C	0.33
U26C U41G C50A A56G	0.1
U26C U41G U72C	0.56
U26C U43A U49C U54G	0.16
U26C U43A U54C U66C	0.16
U26C U43A U67C	0.55
U26C U43C A47G A56G	0.31
U26C U43C A57G U78C	0.28
U26C U43C C62G	0.21
U26C U43C C71U A75G	0.26
U26C U43C U48C U58C U60A	0.17
U26C U43G A57C U60A A64U U80C	0.13
U26C U48A A56G A77C	0.24
U26C U48A U60C	0.36
U26C U48C A56G U80C	0.13
U26C U48C C59A C68U	0.21
U26C U48C U58C U69C	0.15
U26C U48C U60C A64G	0.18
U26C U48C U67C A77G	0.05
U26C U48C U80A	0.34
U26C U49C A57G U72A	0.43
U26C U49C U54C A56U U78C	0.09
U26C U49C U60C A65G	0.11

Variant	self-cleavage
U26C U49C U74C	0.23
U26C U49G U58A	0.34
U26C U51A U76G	0.24
U26C U51C A57G	0.25
U26C U51C U60G A64U A65C U76C	0.1
U26C U51C U76C	0.52
U26C U51G A65G U67C	0.19
U26C U51G U69C U80C	0.13
U26C U54A U69A	0.16
U26C U54C A56U	0.36
U26C U54C A56U U66A	0.33
U26C U54C A57G	0.21
U26C U54C A64G	0.28
U26C U54C A64U C79A	0.15
U26C U54C G55U U78C C79U	0.47
U26C U54C U66C	0.4
U26C U58C G61U A75G	0.14
U26C U60A A65U	0.14
U26C U60C U74A	0.55
U26C U60G A64G	0.12
U26C U69C U76C	0.45
U26C U72A U80C	0.6
U26C U74A A75G	0.76
U26G A28U U76A	0.18

Variant	self-cleavage
U26G A35U A56G	0.13
U26G A47C U78A	0.25
U26G A65U U69A	0.32
U26G C38U U54A A56G U72C	0.02
U26G U31A A65G	0.23
U26G U31C U43C U72C	0.45
U26G U51A A64G	0.13
U26G U51C U67C	0.13
C27A A28G U41A U69C	0.1
C27A A28G U41C U78C	0.17
C27A A35U U69A	0.45
C27A A45G U49A U67A	0.13
C27A C29A A56G A65G	0.35
C27A C32U U51A U60C U67C U69A	0.05
C27A C37U U66C G70A	0.05
C27A C38U U69C	0.12
C27A G46C U48C U49A A64G	0.16
C27A U31C A65G	0.18
C27A U41A U72C	0.12
C27G A47G U80C	0.36
C27G C38G A75G U80C	0.05
C27G U41A A45G U51A A64U	0.12
C27G U41C A57G	0.12
C27G U49C A64G	0.13

Variant	self-cleavage
C27G U49C U51C A65G	0.13
C27G U58C A64G U69A A75U	0.07
C27G U72A A75G	0.11
C27U A28C A35C U51A U66C	0.14
C27U A35G A77G	0.3
C27U A35U C40U	0.24
C27U A35U U54A U78C	0.13
C27U A45G U51A U54A U67C U74C	0.07
C27U G42C A64G U66C	0.16
C27U G70U U78C	0.13
C27U U31A A56U U67C A77U	0.06
C27U U31A U54C A64C U72C	0.09
C27U U31C U43A	0.18
C27U U41A U78C	0.08
C27U U43G U49C A56G U74A A75G	0.08
C27U U48C U72C U78A	0.09
C27U U51A A57G C59U U69C U72A U78G	0.08
C27U U51C U66C	0.11
C27U U54A U72C U74C	0.12
C27U U54A U78A	0.24
C27U U72C A77G	0.27
A28C A47G U67G	0.17
A28C A57G U58A	0.18
A28C C29U U43C U51A U66C	0.09

Variant	self-cleavage
A28C C34G U43C	0.19
A28C C39U U51C	0.41
A28C C50U U60A	0.13
A28C C62A U67A	0.17
A28C G33C A75U	0.43
A28C U31A U43A U60C G61A U67C	0.06
A28C U31G U72A	0.09
A28C U41A U80C	0.51
A28C U41C A57G U80C	0.35
A28C U41C U72C	0.35
A28C U48C A56U	0.44
A28C U58C U69A A75G	0.25
A28C U72A U76A	0.38
A28C U72A U78A	0.51
A28G A35G A45U U51C	0.31
A28G A35G A65C U67C	0.32
A28G A35G C37A C39U A47G U67C U72A	0.06
A28G A35G C38U U72C	1.18
A28G A35G G52A	1.28
A28G A35G U41A A45G A56U	0.27
A28G A35G U41A U43G	0.2
A28G A35G U43A U69C	0.64
A28G A35G U54C U67C	0.1
A28G A35G U69C	0.51

Variant	self-cleavage
A28G A35U A45U	0.16
A28G A35U A64U	0.07
A28G A35U C39U C44U	0.11
A28G A35U G61A	0.11
A28G A35U U41A	0.3
A28G A35U U43C U54C U78A	0.15
A28G A35U U54C U58C U72C	0.14
A28G A35U U80C	0.29
A28G A45C A47G A64U U67C	0.1
A28G A45G A56G A65G A75U C81A	0.06
A28G A45G A57G	0.25
A28G A45G G52C A75U	0.36
A28G A45G U72C U80A	0.63
A28G A45U C62A	0.1
A28G A45U U49C	0.14
A28G A45U U54C U78C	0.5
A28G A45U U72C	0.22
A28G A45U U76C	0.43
A28G A47C U51A U54C	0.24
A28G A47C U51C U66C U72A	0.25
A28G A47G U58C A65G	0.13
A28G A47G U67A	0.16
A28G A47G U72A U78C	0.17
